Test results reported in the supplement of paper PMC10126150.
Sequences with one replicate were seen in a single cluster, so their values are uncertain.

Each sequence was assayed on ATP (assay: switch fluorescence ratio, 500 uM ATP over buffer (Cy3 cluster intensity, sum of 5 cycles each) (fold (ratio)); higher = stronger signal-on switching upon ATP binding; sequences stand for … in TCGTCGGCAGCGTCAGATGTGTATAAGAGACAGTTTTTTTTTTTTTTTTTTTTTTTTT…TC). Conditions: aptamer strand: ATP DNA aptamer (quencher-CACCTGGGGGAGTATTGCGGAGGAAGG + anchor), 100 nM annealed; ATP concentration: 500 uM; one replicate.
Procedure, shortened: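 Exposure to 500 uM ATP lasted 15 min at 22 °C before imaging, and a selection-buffer image was taken beforehand, for Cy3-labelled switching-strand clusters on a modified Illumina MiSeq flow-cell annealed to 100 nM quencher-labelled ATP aptamer. Five buffer/ATP cycles were run with NaOH stripping and re-annealing between them. The fluorescence ratio per cluster is summed target-cycle over summed buffer-cycle Cy3 intensity, averaged per switch-domain sequence. Clusters outside 100-1000 RFU were excluded.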

Row | Sequence | switch fluorescence ratio
1 | GAATACTCGT | 1.02
2 | AAAAGTGCAC | 1.06
3 | CGAGACGAAA | 0.994
4 | AATGCACTTT | 1.05
5 | ATGTCCATCG | 0.999
6 | ATTATATTAT | 1.01
7 | ATGGGGCTTC | 0.954
8 | AAGCGCGGGT | 0.993
9 | TGAGTGAATA | 1
10 | AGATTTCCCT | 1.04
11 | CGTCAATTGC | 1.82
12 | TCAAGGTCTT | 0.95
13 | CCCGCCAGAA | 1.57
14 | AGCTGGGCGG | 0.915
15 | ACCCAAGCGG | 1.01
16 | CTCAAAATCG | 1.09
17 | GCAGGGGGCT | 0.981
18 | CACAGGTATA | 0.991
19 | ATAGCGGCGT | 1.03
20 | CAGGTGGCGG | 0.986
21 | TTGAGAGCTC | 0.942
22 | GAACCAGGAT | 1.13
23 | TAAAAATGAT | 1.01
24 | AGGTCACGAT | 0.991
25 | CGGTTCACTA | 0.993
26 | CTAATTAAA | 0.984

Row | Sequence | switch fluorescence ratio
27 | TACATTCAGC | 1.01
28 | CAATCAGAAG | 1
29 | TTAACGTTGA | 0.939
30 | ATTGCGTGTT | 0.982
31 | TACTGATCTG | 1.01
32 | TCATTGTTC | 1.06
33 | GAATAAGTGC | 1.03
34 | CTGTGACGAC | 1.03
35 | CAGGATCTCG | 1.02
36 | GGCTCAT | 1.02
37 | GCCATGAAGT | 1.02
38 | GCGAAGAGAA | 0.946
39 | TGATTTACG | 1.02
40 | TACGGGGGGC | 1.03
41 | CCTCGTGGGC | 1.54
42 | ATCGCTCTCC | 1.4
43 | ATGCCGATTG | 1
44 | CTATTCGATC | 0.99
45 | AAGCACCTGG | 1.07
46 | TGGACGTAAC | 1.35
47 | CTCGGCAGAT | 1.93
48 | GTTAGAACTC | 0.981
49 | TTTGGTGGTG | 1.06
50 | TACTTGGGGA | 0.963
51 | CTGTTTAGGC | 0.98
52 | TACTATAGCA | 1.04

Row | Sequence | switch fluorescence ratio
53 | GTCCTTGCTT | 1.02
54 | TCTTTTGCGA | 1.1
55 | TATGATCCGA | 1
56 | GAAAGAAGAA | 0.994
57 | GGTAGGCG | 1.03
58 | GTTAAAGCAG | 1
59 | ACTACATCA | 1.05
60 | AGCTTGTGAT | 0.99
61 | TAGAGAGTCA | 0.999
62 | AAGACCTGAG | 1.06
63 | TCTATGACCT | 1.2
64 | GAATTGACGG | 1
65 | ACATATGGAC | 1.04
66 | TGTTTGAACA | 1.03
67 | TTCAAGGA | 1.02
68 | GGTGAAAAGG | 0.956
69 | AATTTGACGG | 1.01
70 | GATTAATTGG | 0.975
71 | TCATGCGGCT | 0.999
72 | TTACGCCCGT | 1.06
73 | GGATCATCAC | 1.01
74 | CGCAAAAATG | 1
75 | CTAATCTTGA | 1.01
76 | TGTTCATTTA | 1
77 | CGTATAATTA | 1.05
78 | CGAAGACTAG | 1

Row | Sequence | switch fluorescence ratio
79 | CTGTGATTG | 0.984
80 | CTTGACTCGT | 1
81 | TAAAAGCCCC | 1.11
82 | ATCGGCCGAC | 1
83 | CGCAGGCTGC | 1.02
84 | GAAGGGTAAG | 0.999
85 | GATAGAGGAT | 0.978
86 | TGATTTGTG | 0.939
87 | TAAGTTAACC | 0.942
88 | ACATATCAAT | 1.05
89 | TATGAGGCGA | 1.09
90 | AGCAAGTATA | 1.04
91 | AGTTCTGAGT | 1
92 | TGGTATTCTT | 0.962
93 | ACAGGAGGC | 0.94
94 | TGGGAGATAA | 0.961
95 | TCTTCACACC | 1.15
96 | ACCTGATATC | 1.03
97 | GCCTCTAGTT | 1.01
98 | TCGTGCTCGT | 0.975
99 | AGATATCTAC | 0.996
100 | CCCACGTCTA | 1.33
101 | GATCTCCATC | 1.01
102 | TAGGCTTGTG | 0.997
103 | CGCTGAGGGG | 1.27
104 | CCAATAAAGA | 0.985

Row | Sequence | switch fluorescence ratio
105 | TGGAAAAGTC | 1
106 | CTCAAGAGGG | 0.987
107 | ATTCGCGTCT | 1.02
108 | ACATACTATT | 1.3
109 | TTTACGCCTG | 0.988
110 | ACGGTTGGTA | 1.02
111 | CAATCTGATC | 1.03
112 | ACTTTTTTGG | 0.962
113 | TCGCCTGAGT | 1.02
114 | AAGTGCAATT | 1.03
115 | GGATTTTTGC | 1.03
116 | GATGTAATGA | 1.02
117 | AGCTTGACAA | 1.05
118 | TTAGTAGCTG | 0.866
119 | CTGATAGGTA | 0.961
120 | TTTATACGTC | 0.988
121 | GCATAGATTC | 1.02
122 | CCACTTTTGC | 1.03
123 | CAATCGGGGG | 1.03
124 | AGCAGCGGTA | 0.993
125 | TCATGGGCCT | 1.03
126 | CCGTTCCGTT | 1.11
127 | TCACCTCCAA | 1.25
128 | GATTGCCGAG | 1.01
129 | CTAGCGCCGA | 0.962
130 | CGATGAGAC | 1.04

Row | Sequence | switch fluorescence ratio
131 | TTCACCGATA | 1.06
132 | GCTACATTGT | 0.961
133 | AACGCCTCC | 1.52
134 | ATTAGCTGTA | 1.03
135 | GCCCACATTC | 1.05
136 | TGATACCCAT | 1.04
137 | AGCTTCA | 1.12
138 | AGCGTGGACG | 0.984
139 | AACAGGGGCG | 1.04
140 | CTTGCAAGG | 1.01
141 | CTGGAGTGTG | 0.966
142 | ACATTGTCGG | 0.973
143 | TCGGGTACGG | 1.01
144 | CAACTCTTAG | 0.969
145 | GAAACGTATG | 0.987
146 | ATGGTAGACC | 1.02
147 | TGCCAGTGAG | 0.976
148 | TACTGACTTA | 1.17
149 | CCCTGTTAGA | 1
150 | CGGCAGACCA | 0.956
151 | AGGTAGACTG | 1.02
152 | TGCGTCGGAT | 0.992
153 | GGCGGCGGCG | 0.973
